Reference: article PMC4336329 (PLoS ONE, 2015)
Hit rate of the full screen: of about 310,000 compounds, about 2,200 (0.71%) showed an effect of 50% or more. Effects have a minus sign here. Some of the results follow.

The molecules below were run against human ether-à-go-go-related gene (hERG) potassium channel (human, UniProt Q12809) (assay: primary screen, population patch clamp on CHO cells stably expressing hERG).
Chain of human ether-à-go-go-related gene (hERG) potassium channel (Q12809 whole entry, looked up): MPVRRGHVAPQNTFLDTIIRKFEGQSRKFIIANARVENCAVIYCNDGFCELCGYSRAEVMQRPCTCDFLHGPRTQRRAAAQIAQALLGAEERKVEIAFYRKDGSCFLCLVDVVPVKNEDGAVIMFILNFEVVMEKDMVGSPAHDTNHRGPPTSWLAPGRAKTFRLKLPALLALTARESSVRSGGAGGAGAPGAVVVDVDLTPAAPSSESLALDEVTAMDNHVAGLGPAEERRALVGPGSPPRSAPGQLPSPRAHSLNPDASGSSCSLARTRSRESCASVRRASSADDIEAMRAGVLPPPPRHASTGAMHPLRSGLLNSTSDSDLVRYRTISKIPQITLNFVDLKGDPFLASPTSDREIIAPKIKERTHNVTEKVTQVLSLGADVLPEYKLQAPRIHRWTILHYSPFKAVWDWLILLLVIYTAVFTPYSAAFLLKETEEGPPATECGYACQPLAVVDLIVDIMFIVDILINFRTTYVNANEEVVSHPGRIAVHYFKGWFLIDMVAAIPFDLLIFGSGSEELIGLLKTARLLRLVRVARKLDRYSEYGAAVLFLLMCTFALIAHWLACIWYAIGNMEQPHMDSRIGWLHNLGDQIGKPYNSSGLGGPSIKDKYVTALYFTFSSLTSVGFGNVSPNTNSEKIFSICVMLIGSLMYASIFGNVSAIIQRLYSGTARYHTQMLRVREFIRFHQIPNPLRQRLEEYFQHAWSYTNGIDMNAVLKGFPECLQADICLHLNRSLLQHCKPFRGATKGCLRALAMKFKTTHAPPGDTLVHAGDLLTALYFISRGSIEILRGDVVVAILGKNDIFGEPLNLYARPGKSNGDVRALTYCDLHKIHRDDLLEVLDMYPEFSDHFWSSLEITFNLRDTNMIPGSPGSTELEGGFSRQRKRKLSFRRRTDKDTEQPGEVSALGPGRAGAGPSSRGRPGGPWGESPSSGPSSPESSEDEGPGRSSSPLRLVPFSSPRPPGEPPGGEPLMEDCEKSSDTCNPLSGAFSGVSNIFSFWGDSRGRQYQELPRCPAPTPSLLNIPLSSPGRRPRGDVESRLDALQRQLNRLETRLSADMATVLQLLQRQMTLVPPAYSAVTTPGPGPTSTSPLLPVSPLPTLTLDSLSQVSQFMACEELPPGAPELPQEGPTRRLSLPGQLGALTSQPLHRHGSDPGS

SMILES | hERG current change (%, negative = inhibition) at 1uM
Cc1nnc(SCC(=O)Nc2ncc(S(=O)(=O)c3ccc([N+](=O)[O-])cc3)s2)s1 | 10.9%
COc1ccc(C)cc1NC(=O)CSc1nc2ccccc2nc1N1CC(C)OC(C)C1 (stereo not drawn) | 18.7%
CC(=O)c1c(COC(=O)c2ccncc2)nc2ccccc2[n+]1[O-] | 11.3%
CCN1CCCC1CNC(=O)c1cc2c(=O)n(C)c3ccccc3c2n1C (stereo not drawn) | -4.16%
CCCNc1c(NS(=O)(=O)c2ccc(C3CCCCC3)cc2)c(=O)oc2ccccc12 | 20.1%
CN(C)c1ccc(NC(=O)c2ccc3c(c2)nnn3C)cc1 | 9.27%
CC1=CC(=C(C#N)C#N)C=C(C)N1Cc1ccc(Cl)cc1 | 11.9%
CCN(CC)C(=O)Cn1cc(S(=O)(=O)CC(=O)NC2CCCCC2)c2ccccc21 | 6.21%
COC(=O)CNC(=O)c1ccc(NS(=O)(=O)c2cc([N+](=O)[O-])ccc2Cl)cc1 | 14%
CS/C(=N\S(=O)(=O)c1ccc(N)cc1)NS(=O)(=O)c1cccs1 | 3.45%
CN(c1ccc(OCC(=O)N2CCCCC2)cc1)S(=O)(=O)c1cccs1 | 0.858%
CC(=O)c1cc(-c2ccccc2)n(CCC(=O)NCc2cccs2)c1C | 0.227%
Cc1ccccc1OCC(=O)NC(=S)Nc1ccc(S(=O)(=O)NC2CCCCC2)cc1 | 12.4%
CN(C)C(=O)Oc1ccc([N+](=O)[O-])cc1 | 15%
Cc1cc(C)c[n+](C2=C([O-])c3ccccc3C(=O)/C2=N\S(=O)(=O)c2cccs2)c1 | -2.22%
COc1cc(/C=C/C(=O)OCC(=O)N2CCN(C(=O)c3ccco3)CC2)ccc1O | 4.82%
CC(=O)Oc1ccc2c(=O)oc(-c3ccc([N+](=O)[O-])cc3)nc2c1 | -5.62%
COc1ccc(-c2nn(-c3ccccc3)cc2C(=O)NCC(c2cccs2)N2CCOCC2)cc1 (stereo not drawn) | 2.71%
CC(C)(C)c1nnc(SCC(=O)c2ccccc2)n(N)c1=O | 5.12%
CCOC(=O)c1c(N)sc(C(=O)N2CCOCC2)c1C | 6.02%
CNc1cncc(C(=O)O)c1 | 11.5%
CC1=NOC(=O)/C1=C\c1ccc(-c2cc(Cl)ccc2Cl)o1 | 13.4%

SMILES | hERG current change (%, negative = inhibition) at 1uM
CN(C)Cc1ccc(-c2nc3cccc4c3n2CCNC4=O)cc1 | -0.249%
COc1ccc(Br)cc1S(=O)(=O)n1ccnc1C | -4.55%
NC(=O)Cc1ccc(C(=O)c2ccccc2)s1 | 14.6%
CSc1cccc(NC(=S)NN(C)C)c1 | 4.89%
CCCC(=O)NC(Nc1ccc(S(=O)(=O)Nc2cc(C)on2)cc1)(C(F)(F)F)C(F)(F)F | 18%
CCn1nnnc1SCCSc1nnnn1CC | 8.1%
CN(C)c1ccc(/C=N/Nc2cc(N3CCOCC3)nc(N3CCOCC3)n2)cc1 | 5.71%
CC(=O)Nc1ccc(S(=O)(=O)N2CCC(C(=O)NCCC(=O)NCc3ccccc3)CC2)cc1 | 17.1%
C#CCNC(=O)C1=C[C@H](c2ccc(C#C)cc2)C[C@H](OCc2ccc(CO)cc2)O1 | 10.1%
COC(=O)c1scc(C)c1S(=O)(=O)Nc1ccc(C)cc1 | 12.7%
CCc1ccc(CC2(O)CC(C)N(C)CC2C)cc1 (stereo not drawn) | 2.1%
Cc1cccc(-c2nnc(SCC(=O)Nc3cc(C)on3)n2C)c1 | 14.3%
Cc1cc(C(=S)N2CCOCC2)c(C)n1-c1ccc(F)cc1 | 0.42%
COc1cccc(N2CCN(CC(=O)NCc3cccs3)CC2)c1 | 9.39%
COc1cc(CC(=O)OCC(=O)Nc2cc([N+](=O)[O-])ccc2Cl)cc(OC)c1OC | -2.69%
CCC(C(=O)Nc1cc(OC)c(NC(=O)c2ccccc2)cc1OC)c1ccccc1 (stereo not drawn) | 12.9%
CC1(C)CC(=O)C2=C(C1)NC(=O)CC2c1ccc(N(CCC#N)CCC#N)cc1 (stereo not drawn) | 12.4%
Cc1ccc(S(=O)(=O)CC(=O)c2cc(C)c(OC(=O)N(C)C)c(C)c2)cc1 | 18.6%
O=C(N/N=C/c1ccc(OCc2ccccc2)cc1)c1ccco1 | 12.1%
COC(=O)CS(=O)(=O)c1ccc2c(c1)CC(=O)N2 | 9.47%
Cn1nnc2cc(NC(=O)Nc3cccc(Cl)c3)ccc21 | 1.69%
O=C1CC(c2cccc(F)c2)c2c(c3ccccc3[nH]c2=O)O1 (stereo not drawn) | 14.3%

SMILES | hERG current change (%, negative = inhibition) at 1uM
COc1cc(NC(=O)c2ccc(NC3=NC4CS(=O)(=O)CC4S3)cc2)cc(OC)c1 (stereo not drawn) | 1.02%
Cc1cccc(S(=O)(=O)c2c(C)cc(C)nc2Cl)c1 | 4.08%
Cc1c(C(=O)Nc2ccccc2)c2ccc(C(F)(F)F)cc2n1O | 11.6%
CN(C)c1cccc(C(=O)NCc2ccccc2)c1 | 11%
C/C=C(/C)C(=O)OC1c2c(ccc3ccc(=O)oc23)OC(C)(C)C1OC(C)=O (stereo not drawn) | -36.9%
COC(=O)CCC(=O)c1oc2ccc(OC)cc2c1N | 13.1%
Cc1ccc(N(NC(=O)C(O)(c2ccccc2)c2ccccc2)C(=O)CCl)cc1 | 6.66%
CCSc1ccccc1C(=O)NCCc1ccccc1 | 16.5%
Cc1ccc(S(=O)(=O)/N=C(/Nc2cccc(C(=O)O)c2)c2ccccc2)cc1 | 18.3%
COCC(C)NS(=O)(=O)c1ccc(NC(=O)c2ccccn2)cc1 (stereo not drawn) | 8.92%
Cc1ccc(NC(=O)Nc2cc(C)on2)cc1 | 1.65%
COCCNC(=O)c1ccccc1NC(=O)c1ccc(OC)c(OC)c1 | 4.05%
COC(=O)c1ccccc1NC(=O)CN(C)S(=O)(=O)c1ccc(OC)c(C)c1 | -3.84%
CCOC(=O)C1CCN(CC(=O)c2ccc(O)c(C)c2O)CC1 | 12.3%
Cc1ccc(F)cc1NC(=O)N1CCN(C2c3ccccc3-c3ccccc32)CC1 | 20.8%
CCCCN(C)C(=O)c1coc(=O)c2ccccc12 | 12.3%
O=C(c1ccco1)N1CCN(C(=O)c2ccccc2OCc2ccc(Cl)cc2)CC1 | -22.9%
COc1ccc([C@H]2CC(=O)C=C(/C=C/c3ccc(Cl)cc3)C2)cc1 | 16.5%
CCOC(=O)N1CCN(c2nc(-c3ccc(OC)cc3)no2)CC1 | 13.5%
COc1cc2c(C(=O)N3CCN(C)CC3)c(CSc3ccccc3)n(C)c2cc1Br | -2.94%
Cc1ccc(S(=O)(=O)Nc2ccc(NC(=O)c3ccc(F)cc3)cc2)cc1 | -3.98%
COc1ccc(O)c(C(=O)c2cnc3c(c2)c(=O)[nH]c(=O)n3C)c1 | 10.2%

SMILES | hERG current change (%, negative = inhibition) at 1uM
O=C(NCc1nc2ccccc2[nH]1)C1=C[C@H](c2ccc3c(c2)OCO3)C[C@H](OCc2ccc(CO)cc2)O1 | 6.34%
CCOC(=O)c1sc(C)c2c(=O)n(CCCN3CCOCC3)cnc12 | 12.5%
O=S(=O)(c1ccccc1C(F)(F)F)N1CCN(S(=O)(=O)c2ccccc2C(F)(F)F)CC1 | 2.31%
O=C(NC1CCCN(CCc2ccccc2)C1)c1c[nH]c2ccccc12 (stereo not drawn) | -31.3%
CCSc1nncn1/N=C/c1ccc(OC)c(OC)c1 | 3.26%
COC(=O)C1=C(C)N(Cc2ccco2)C(=O)C1 | 6.72%
COc1cccc(Nc2nc(N)c([N+](=O)[O-])c(NCc3ccco3)n2)c1 | 5.63%
COc1cccc(N2C(=O)/C(=C/c3ccc(C)o3)C(=O)NC2=S)c1 | 19.1%
COc1ccccc1C(=O)NN(C)C1=NS(=O)(=O)c2ccccc21 | 19%
Cn1c(SCCN2CCCC2)nnc1C1CCN(S(=O)(=O)c2ccc(F)cc2)CC1 | 11%
C[C@H](NC(=O)c1nc[nH]c1C(=O)N[C@@H](Cc1ccccc1)C(=O)OC(C)(C)C)C(=O)OC(C)(C)C | 3.44%
Cc1c(C(=O)Nc2c(C)n(C)n(-c3ccccc3)c2=O)oc2ccccc12 | 13.7%
O=C(COc1cccnc1[N+](=O)[O-])N1CCN(S(=O)(=O)c2ccc3ccccc3c2)CC1 | -0.433%
COc1cccc(-c2cc(C(=O)N3CCCc4ccccc43)no2)c1 | 3.79%
O=C(CSC1=NS(=O)(=O)c2ccccc2N1)Nc1ccc(F)cc1 | 11.6%
Cc1cccc(/C=C2\Sc3ccc(C(=O)N4CCC(C)CC4)cc3N(C)C2=O)c1 | 13.4%
CN(Cc1ccccc1)CC(O)COc1ccc(CNCc2nccn2C)cc1 (stereo not drawn) | -39.3%
CCCCc1c(O)nc(SCC(=O)N2CCCCCC2)[nH]c1=O | 4.87%
CCCN(C(=O)Cc1nc(N)n[nH]1)C1(C(=O)Nc2ccccc2C)CCCCC1 | 10.6%
CCn1c(/C=C/c2c[nH]c3ccccc23)nc2ccccc2c1=O | 13.1%
CC1CCN(c2ccc([N+](=O)[O-])cc2C(=O)NCC2CCCO2)CC1 (stereo not drawn) | 5.42%
